Test results from PubChem BioAssay AID588453 (National Center for Advancing Translational Sciences (NCATS), 2011).
About 4,000 (1%) of roughly 390,000 compounds were called active. Inconclusive means that the source gave no clear call. Such entries were picked first, then a sample of the others. The call rests on the fitted dose curve; in most records, active means well fitted inhibition curve with a large enough effect; inconclusive means small, poorly fitted or top-dose-only effect; inactive means no such curve, though single readings can be large or run the other way. Potencies beside an inconclusive call are fits to weak or partial responses and may not hold up.

Target: Thioredoxin reductase 1, cytoplasmic (Rattus norvegicus) (UniProt O89049)
Test: qHTS Assay for Inhibitors of Mammalian Selenoprotein Thioredoxin Reductase 1 (TrxR1): qHTS; further: nearly all actives have a fitted effect of over 65% in size
Conditions: recombinant rTrxR1, NADPH fluorescence consumption, selenite substrate; series mostly up to 114 µM; activity change, negative = inhibition: at the top concentration
Summary of the method: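 Rat TrxR1 (90 nM in the dispensed reagent) was pre-reduced with 400 uM NADPH for 5 min at room temperature, then incubated with compound for 15 min. After 400 uM selenite was added, NADPH fluorescence (Ex 340/Em 450 nm) was followed for 8 min.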
On the % scale 0 is the no-effect control and ±100 the full control effect; potency means the concentration at half of the fitted maximal effect; tags describe the fitted curve by direction and shape.

Chain of UniProt O89049 (O89049 whole entry, looked up): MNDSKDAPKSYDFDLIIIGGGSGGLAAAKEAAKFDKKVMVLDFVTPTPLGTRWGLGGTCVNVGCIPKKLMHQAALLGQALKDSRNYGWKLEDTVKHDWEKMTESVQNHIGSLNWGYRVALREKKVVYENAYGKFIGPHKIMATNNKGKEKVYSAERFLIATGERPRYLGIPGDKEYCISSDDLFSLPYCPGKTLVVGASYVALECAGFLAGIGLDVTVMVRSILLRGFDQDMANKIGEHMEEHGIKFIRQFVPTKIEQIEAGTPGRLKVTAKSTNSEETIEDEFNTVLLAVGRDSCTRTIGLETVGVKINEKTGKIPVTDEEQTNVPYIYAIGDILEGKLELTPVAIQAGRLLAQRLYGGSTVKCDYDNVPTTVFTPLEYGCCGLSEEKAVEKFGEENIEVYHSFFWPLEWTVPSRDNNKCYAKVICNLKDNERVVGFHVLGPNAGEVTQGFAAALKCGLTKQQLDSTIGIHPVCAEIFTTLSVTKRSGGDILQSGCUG

Row | SMILES | Potency | activity change, negative = inhibition
1 | COc1cc(OC)cc(C(=O)Nc2ccc(N(C)C)c3ccccc23)c1 | inconclusive: 3.16 µM [inhibitor, partial curve] | 
2 | O=C(CCS(=O)(=O)c1cccc2nsnc12)Nc1ccc(F)cc1 | inconclusive: 22.4 µM [inhibitor, full curve] | 
3 | Cc1ccc(NC(=O)CCS(=O)(=O)c2ccc(Br)cc2)nc1 | inconclusive: 14.1 µM [inhibitor, full curve, poor fit] | 
4 | CSc1cccc(NC(=O)C2CCN(C(=O)c3cnn(-c4ccccc4)c3-n3cccc3)CC2)c1 |  | inactive: 2.13%
5 | CC(=O)NC1=CC(=O)c2nonc2C1=O | inconclusive: 25.1 µM [inhibitor, full curve, poor fit] | 
6 | CCOC(=O)C[C@H]1c2ccc(C(F)(F)F)cc2S(=O)(=O)N1c1cccc(OC)c1 | inconclusive: 39.8 µM [inhibitor, single point] | 
7 | COc1ccc2nc(NC(=O)c3nc(S(=O)(=O)Cc4cccc(C)c4)ncc3Cl)sc2c1 |  | inactive: -19.3%
8 | CCOC(=O)Cn1nc(C)c(NC(=O)COc2ccc(Cl)cc2C)c1C | inconclusive: 28.2 µM [inhibitor, single point] | 
9 | Cn1c(=O)[nH]c(=O)c2c1[nH]c(=S)n2Cc1ccccc1 | inconclusive: 25.1 µM [inhibitor, single point] | 
10 | COc1cc2oc3ccc(C#Cc4ccc(N)cc4)cc3c(=O)c2cc1OC |  | inactive: 2.27%
11 | CCOC(=O)C1CCN(S(=O)(=O)c2cccc(-c3cn4cc(C)ccc4n3)c2)CC1 |  | inactive: 16.6%
12 | COc1ccc(-c2cc(=Nc3c(C)n(C)n(-c4ccccc4)c3=O)c3ccccc3o2)cc1 | inconclusive: 79.4 µM [inhibitor, single point] | 
13 | Cc1ccc(NC(=O)CSc2nc(-c3ccco3)nc3cc(=O)[nH]n23)cc1C |  | inactive: 10.8% [at 57.1 µM]
14 | COC(=O)c1ccc(NC(=S)NCC2CC2)cc1 | inconclusive: 39.8 µM [inhibitor, partial curve, poor fit] | 
15 | CO[C@H]1C[C@@H]2CC[C@@H](C)[C@@](O)(O2)C(=O)C(=O)N2CCCC[C@H]2C(=O)O[C@H]([C@H](C)C[C@@H]2CC[C@@H](O)[C@H](OC)C2)CC(=O)[C@H](C)/C=C(/C)[C@@H](O)[C@@H](OC)C(=O)[C@H](C)C[C@H](C)C=C/C=C\C=C/1C | inconclusive: 50.1 µM [inhibitor, partial curve] | 
16 | COc1ccccc1NS(=O)(=O)c1ccc(NC(=O)CCNC(=O)c2ccco2)cc1 | inconclusive: 39.8 µM [inhibitor, partial curve, poor fit] | 
17 | COc1cc(NC(=O)N2CCN(c3cc(-c4noc(C)n4)ccc3C)CC2)cc(OC)c1OC |  | inactive: 11.6% [at 57.1 µM]
